Assay results: the supplement of paper PMC3334620
Over roughly 33,000 sequences, “E-score (-0.5 to 0.5)” has its median near -0.013; the highest 2% begin near 0.3. The list shows a part of the results.

These sequences were tested against T1, Msn1 (UniProt P22148) (assay: PBM E-score (8-mer binding enrichment) (E-score (-0.5 to 0.5)); higher = stronger / more preferred TF binding; most listed sequences are background and not binding sites). Conditions: protein concentration: 200 nM; construct: GST-full length.
T1 sequence: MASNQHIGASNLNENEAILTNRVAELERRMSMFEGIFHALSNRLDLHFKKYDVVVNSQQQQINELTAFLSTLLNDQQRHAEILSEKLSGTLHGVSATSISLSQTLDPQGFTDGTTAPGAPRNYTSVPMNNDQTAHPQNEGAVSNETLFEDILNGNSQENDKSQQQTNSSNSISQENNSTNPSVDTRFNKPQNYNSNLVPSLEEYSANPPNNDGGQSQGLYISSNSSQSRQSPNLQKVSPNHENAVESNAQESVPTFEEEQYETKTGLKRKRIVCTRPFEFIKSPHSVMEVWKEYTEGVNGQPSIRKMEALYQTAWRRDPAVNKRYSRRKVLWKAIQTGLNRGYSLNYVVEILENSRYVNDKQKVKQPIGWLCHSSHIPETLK
Method in brief: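 Universal all-10-mer Agilent arrays, fresh or stripped once, were converted to double-stranded form by primer extension. GST-tagged yeast transcription factors from PURExpress in vitro transcription/translation, full-length or DNA-binding domain only, were applied at about 100-200 nM and detected with fluorescent anti-GST. After masliner normalisation, the Universal PBM Analysis Suite scored each ungapped eight-base word together with its reverse complement by E-score.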

Sequence	PBM E-score
ACCGTTGG	-0.139
CTTTTACA	0.261
ATTCAGCC	-0.0655
ACGGGGTC	-0.161
ATCCCACA	-0.141
ACGGCGCA	0.141
GGTGTAAC	0.0244
CGAAAGAC	0.0819
GCTAGTCA	-0.2
AGCGACTC	-0.183
GTGGTGTA	0.011
AATAAATA	0.302
CGCAGAGA	0.104
GGTGAAAA	0.175
TGAGTTAA	-0.0319
AATAAAGG	-0.119
AGCTCCTG	-0.175
AGAAGCCG	-0.0669
CCCAAGAG	-0.0231
AGGGCACC	-0.273
GATCTCCC	-0.161
ATGCAGTC	-0.186
ACAACAAT	0.229
AGCTATTC	-0.279
ACTTGGCT	-0.176

Sequence	PBM E-score
CACCCGAG	-0.074
GGCGCTCA	-0.151
CTAACAGA	0.112
AGAGCATC	-0.174
GGCGGCGA	-0.0421
GTACAATA	0.332
TACGGCGA	-0.0274
CCTATAAC	0.00773
CCGAGTAC	-0.0145
ACTCCCTG	-0.28
GGGGGCAA	-0.266
CAGACCTC	-0.125
AAGTCGTA	0.0748
ATATATCG	0.141
CAGGGCAA	-0.0169
AGTCAACA	0.0311
AAAAGTCT	0.269
AACGTAAC	-0.0335
CATCAAGA	0.0145
TGAATACA	0.173
AGCGACAG	0.0951
AGCATGGA	-0.133
CAAAATAG	0.025
GTCGCCGA	0.0541
AACCCGTC	-0.142

Sequence	PBM E-score
GCAGTAAC	-0.177
ATACTCTA	-0.0893
AAAAACTA	0.175
GAGACACA	0.272
ACTTCAAC	0.0598
CGTGTGGA	-0.149
TAGCCGAA	0.0236
TACCGCTA	-0.116
TCACTAGA	0.0764
CTTAGTCC	0.0798
AGAACCGC	0.0757
AGACACTC	0.0424
CAGTAATG	-0.0728
ACACCCAC	-0.0452
CCTCGGCC	-0.0291
CGTTATAC	-0.0611
AGTAACTA	0.00829
CAAATAAG	0.05
CATTCAAC	0.0646
ATTAGATG	0.207
TTAAAGAA	0.197
CATCCGGC	-0.0374
TAAGGGAA	-0.05
ACCAAACT	-0.0813
ACCATGAA	0.13

Sequence	PBM E-score
GTGCATAA	0.0358
GTGGTCCA	0.0746
CGGGCGCC	-0.0285
ATGCCAGA	0.0266
AGTTGGCC	-0.159
GCTTCCAC	-0.128
GCCCAAGA	-0.0404
AAGATCCT	0.164
AATTGAGG	-0.0214
ATATATCA	0.0451
ACCGCCTC	-0.193
ACAGATCT	0.0457
AAGGTCGC	-0.181
CTATTCAG	0.0155
AAGGCAAC	-0.0117
ACGGGACA	0.384
CAGATTTA	0.197
GCTGTAAC	0.127
AATCACCC	0.157
AGAGGGGC	-0.249
AAAGATAC	0.0266
AGTTTAGA	0.0872
AGGTGGAA	0.0843
CCTATAAG	-0.145
ACAGATCC	0.0784

Sequence	PBM E-score
ACAAGTCG	0.0205
AAACACGT	-0.0326
AATCAATT	0.0557
AGGCACTA	-0.16
AGGATACC	-0.0528
ATACGTCC	0.146
AGCTAGCG	-0.214
CTCGGCAA	0.0915
ACCGAAGA	0.103
CAAGCAAC	0.0358
AATTCTAG	0.0838
ATTGGCTA	-0.0374
GTAACGTA	0.0421
CTTTATCC	0.0812
CTCTGGCC	-0.261
ATGATACG	0.0521
GTGACCAA	0.133
AGATTTCG	-0.00257
CATTTCTA	0.248
AGAGTTGA	0.091
GAACCCAC	-0.0538
TGTACCAA	0.328
ACCGGCCG	-0.0174
GAAGTCCC	-0.0665
GACGGGAA	-0.00407

Sequence	PBM E-score
CTGCTGGA	-0.0693
CCATGACA	0.294
CAGTATCG	-0.0345
ACAAGCCA	0.0835
ACCTATTA	-0.0249
ATAAACTC	0.156
CGGCAAGC	-0.059
CCGCACAG	-0.0231
ATTCATAA	0.12
CTCGTGCC	-0.246
AGGCAATG	-0.0429
CCCTGGCG	-0.153
ATATCCTC	-0.0444
AGGGTGAC	-0.00567
CTATATCC	-0.181
GACCTTAA	-0.0217
CAACTTGG	0.0103
AGGGTGAG	-0.342
AGAGTACT	0.114
CGACATTC	0.332
AAGGGGTC	-0.189
GCAGACGC	0.016
GAGGTACA	0.213
AACTGAAT	-0.169
CTCGTCGA	-0.0514

Sequence	PBM E-score
GCCTCCCC	-0.2
CTATTCGC	0.0783
GTAATCAA	0.102
AACTATCT	-0.0223
CCCCCTGC	-0.381
AGTCCTGC	0.0243
CTGAGCAC	-0.206
ACAGAGTG	0.0421
AGAATAAA	0.19
GTGCCTAA	-0.0609
AATGATAT	0.155
AGGGACAT	0.488
GACGGCTA	-0.12
TAAGAATA	-0.0196
ATGCGTCG	0.153
CATGCCCG	0.0245
GCAAAATA	0.192
GCAATAGC	-0.231
ATCAGTAA	-0.066
CGCAATGA	0.1
CTTCTTCA	-0.18
GGTCGACC	0.0655
CATCATAA	0.161
CCAGAAAA	0.059
CTAATGAC	-0.12

Sequence	PBM E-score
CCGTGGTA	-0.147
AACGGCCC	-0.337
CAGTAAAA	0.185
ACGGTATC	-0.0322
ATCGTGAA	0.0393
CCGATAGA	0.105
CAACAACG	0.0487
CCTTTAGA	-0.097
TCACAGCA	0.0126
GAATTAGC	-0.0723
AAAGTAAT	0.209
AGAAGTAC	-0.0605
GAGATCAC	-0.035
TGCGCAAA	0.139
AACACACA	0.133
GCGGTACC	-0.102
GTCGTGAA	0.0457
TGCCAGCA	-0.0784
CAAGGTTA	-0.058
CAGACCAA	0.0863
ACCTCCGC	-0.0319
CAAGCACA	-0.00806
AATAATTG	0.229
CTTGTTCA	-0.0388
CCGTACGG	-0.199

Sequence	PBM E-score
ACAGTGGG	-0.0906
AAAGTATA	-0.0125
ATAACGAA	0.107
AACGGCGG	-0.104
CAACAGGG	-0.184
AGCGACCG	0.0133
GTGCACAA	-0.0401
AGTACCGC	-0.00702
ATGGTCGG	-0.0896
ATTGTCTG	0.34
CAGAAAGC	-0.0396
GGTTTAAA	0.16
ACGTCGAA	0.0529
AAGTCCGT	0.224
CAATATAG	0.0304
CTGCACTA	0.212
AGGCATAA	-0.118
AACTCTGA	0.196
AGATCTTG	-0.103
